Screen size: about 48,000 compounds; about 120 (0.25%) were called active. Inconclusive results (about 4%) are left out. Calls follow the shape of the dose curve; as a rule, active = well fitted activation curve with a large enough effect; inconclusive = small, poorly fitted or top-dose-only effect, or another doubt; inactive = no such curve, though single readings can be large or run the other way. The list shows a part of the results.
Experiment: Primary qHTS for Identification of Small Molecule Activators of Huntingtin-Antisense Promoter Activity; also: nearly all actives have a fitted effect of over 55% in size
Settings: HEK293 HTT-AS promoter firefly luciferase reporter, 24 h; series mostly up to 57.5 µM; activity change, positive = activation: at the top concentration
Outline: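 HEK293 cells carrying firefly luciferase reporters were seeded at 2,500 per well in Opti-MEM and cultured for 24 h. They were then treated with compounds at up to 57.5 uM final for 24 h at 37 degrees C before Dual-Glo luminescence readout.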

| SMILES | activity change, positive = activation |
| --- | --- |
| Cc1cccc(-c2c3c(=O)n(C)c(=O)n(C)c3c3c(C)nc4ccccc4n23)c1 | inactive: -2.81% [at 11.5 µM, percent change from vehicle, -100% = no light] |
| N#Cc1ccc(S(=O)(=O)N2CCC(Oc3cccc(C(F)(F)F)c3)CC2)cc1 | inactive: -37.7% |
| CCCNC(=O)C1=CC(c2ccc3c(c2)OCO3)=NS(=O)(=O)N1C | inactive: -16.4% |
| COc1cc(OC)c(OC)cc1CN1CCc2nc(Nc3ccc4c(c3)OCCO4)ncc2C1 | inactive: -3.84% |
| COc1ccc(CNC(=O)C(=O)Nc2c3c(nn2-c2ccccc2)CSC3)cc1 | inactive: -18.8% |
| O=C(NCc1cccs1)c1nn(-c2ccccc2Cl)nc1CO | inactive: -8.86% |
| COCCCNc1nc2c(S(=O)(=O)c3ccccc3)nnn2c2ccc(Cl)cc12 | inactive: -1.34% |
| CC1=C(C(=O)Nc2ccccc2)C(c2ccccc2C)n2nc(SCC(=O)c3ccc(C)cc3)nc2N1 (centres undefined) | inactive: -2.66% |
| Cc1[nH]n(-c2ccccc2)c(=O)c1C(c1cc(Cl)ccc1O)c1c(C)[nH]n(-c2ccccc2)c1=O | inactive: -8.64% |
| CCOC(=O)c1ccccc1NC(=O)N1CCN(Cc2cc(=O)n3nc(-c4ccccc4)sc3n2)CC1 | inactive: -3.08% |
| O=C(NCCc1csc(-c2ccc(C(F)(F)F)cc2)n1)c1ccc(F)c(F)c1 | inactive: -48.1% |
| CCOc1ccc(-c2cc(CCCC(=O)NCCc3ccc(Cl)cc3)no2)cc1 | inactive: -73.3% |
| Cc1cccc(NC(=O)CSc2nc(-c3cccs3)cc(C(F)(F)F)c2C#N)c1C | inactive: 6.21% |
| CCN(c1cccc(C)c1)S(=O)(=O)c1ccc(-n2cccn2)cc1 | inactive: -36.1% |
| CCc1ccc(NC(=O)CCS(=O)(=O)c2cc3c(cc2Cl)NC(=O)CO3)cc1 | inactive: -0.363% |
| Cc1ccc2[nH]cc(S(=O)(=O)c3ccc(C)c(C)c3)c(=O)c2c1 | inactive: -9.47% |
| Cc1ccc(F)cc1NC(=O)CCc1c(C)nn(-c2ccc(N3CCOCC3)nn2)c1C | inactive: 6.42% |
| CC1Cn2c(C(=O)NCCc3ccc(Cl)cc3)cc3cccc(c32)S1 (centres undefined) | inactive: -25.1% |
| CCN(CC)CCNc1ccc(CO)c2sc3ccccc3c(=O)c12 | inactive: -56.1% |
| Cc1c(C(=O)N2CCCC2)oc2c1-c1nn(CC(=O)NCc3ccccc3Br)cc1CC2 | inactive: -32.3% |
| Cc1ccc(/C=C/c2onc(C)c2S(=O)(=O)N2CCC(C(=O)N3CCOc4ccc(C)cc43)CC2)cc1 | inactive: -20.6% |
| COc1ccc(NC(=O)CCS(=O)(=O)c2nc(-c3ccc4c(c3)OCO4)cc(C(F)(F)F)n2)cc1 | inactive: -40.9% |

| SMILES | activity change, positive = activation |
| --- | --- |
| CSc1ccc(C2CC(=O)Oc3c2c(=O)n(C)c2ccccc32)cc1 (centres undefined) | inactive: 5.07% |
| O=C(CN1C(=O)COc2ccc(S(=O)(=O)N3CCCCCC3)cc21)Nc1cccc(Cl)c1 | inactive: -34.8% |
| COc1ccc(-c2cc(C(=O)Oc3ccc(C)cc3)c3cc(C)ccc3n2)cc1 | inactive: 10.3% |
| Cc1cc(=O)n(C(C)C(=O)N2CCCc3ccccc32)c2c1c(C)nn2-c1ccccc1 (centres undefined) | inactive: -44.4% |
| CCOc1ccc2nc3cc(N)ccc3c(N)c2c1 | inactive: -28.9% |
| Cc1[nH]n2c(=O)cc(-c3ccc(Cl)cc3)nc2c1-c1ccccc1 | inactive: -58.7% |
| Cn1c(=O)c2c(nc(N3CCOCC3)n2Cc2cccc(Br)c2)n(C)c1=O | inactive: -6.36% |
| Cc1ccccc1CNC(=O)Cc1ccc(NC(=O)N2CCCCc3ccccc32)cc1 | inactive: -9.21% |
| COc1ccc(N2CCN(C(CNC(=O)C(=O)NCc3cccnc3)c3cccnc3)CC2)cc1 (centres undefined) | inactive: -24.9% |
| CCOc1ccc(C(=O)c2cn(CC(=O)Nc3cccc(OC)c3)c3cc4c(cc3c2=O)OCCO4)cc1 | inactive: -15% |
| Cc1c(C(=O)N2CCCCC2)c(S(=O)(=O)NCc2ccc(N(C)C)cc2)c(C)n1C | inactive: -4.24% |
| CC(=O)OC[C@H]1O[C@@](COC(C)=O)(O[C@H]2O[C@H](COC(C)=O)[C@@H](OC(C)=O)[C@H](OC(C)=O)[C@H]2OC(C)=O)[C@@H](OC(C)=O)[C@@H]1OC(C)=O | inactive: -7.68% |
| COc1ccccc1CNC(=O)C(C)n1ccc2cc(S(=O)(=O)N3CCCC3)ccc21 (centres undefined) | inactive: -4.07% |
| COc1ccc(CNC(=O)c2ccc3nc(CCc4ccccc4)oc3c2)cc1 | inactive: 12.2% |
| CCOc1ccc(NC(=O)C2CCN(c3nnc(C)c4c(C)n(-c5ccccc5)nc34)CC2)cc1 | inactive: -3.84% |
| Cc1ccc(NC(=O)CSc2nc3c([nH]c4ccccc43)c(=O)n2-c2ccccc2)cc1Cl | inactive: -32.6% |
| Cc1ccc(-c2[nH]c3c(c2-c2c(-n4cccc4)n(C)c(=O)[nH]c2=O)c(=O)[nH]c(=O)n3C)cc1 | inactive: -9.76% |
| CCOC(=O)c1c(C)oc2nc(C)nc(N3CCN(c4ccccc4F)CC3)c12 | inactive: -42.5% |
| Cc1cccc(N2CCN(C(=O)C3CCN(C(=O)c4cc5sccc5n4C)CC3)CC2)c1C | inactive: -33.5% |
| CCc1nc(SC)ncc1C(=O)N1CCN(c2cc(Cl)ccc2C)CC1 | inactive: -35.8% |
| Cc1nn(C(C)C(=O)Nc2ccc(C(C)C)cc2)c(=O)c2c1sc1ccccc12 (centres undefined) | inactive: -15.1% |
| CC(NC(=O)C1CCN(S(=O)(=O)c2ccccc2)CC1)c1ccccc1 (centres undefined) | inactive: -6.05% |
